# Measured values from PMC6919601, “Identification of Plasmodium dipeptidyl aminopeptidase allosteric inhibitors by high throughput screening” (PLoS ONE, 2019).
# Values joined by “and” are separate entries in the source; they are usually repeats but may differ in a detail not shown here. Equal values may be shown once. About 230 (0.21%) of roughly 110,000 compounds showed an effect of 50% or more. The list shows a part of the results.
# Target: DPAP1 (Plasmodium falciparum, UniProt Q8IIJ9)
# Assay: primary screen, percent inhibition; read by cleavage of a fluorogenic dipeptide substrate; higher = more effect of the substance
# Parameters: species or system P. falciparum D10 trophozoite lysates; single well
# 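Note: 30 min substrate incubation versus DMSO and 10 µM JCP410 controls.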
# DPAP1, sequence (Q8IIJ9 whole entry, looked up): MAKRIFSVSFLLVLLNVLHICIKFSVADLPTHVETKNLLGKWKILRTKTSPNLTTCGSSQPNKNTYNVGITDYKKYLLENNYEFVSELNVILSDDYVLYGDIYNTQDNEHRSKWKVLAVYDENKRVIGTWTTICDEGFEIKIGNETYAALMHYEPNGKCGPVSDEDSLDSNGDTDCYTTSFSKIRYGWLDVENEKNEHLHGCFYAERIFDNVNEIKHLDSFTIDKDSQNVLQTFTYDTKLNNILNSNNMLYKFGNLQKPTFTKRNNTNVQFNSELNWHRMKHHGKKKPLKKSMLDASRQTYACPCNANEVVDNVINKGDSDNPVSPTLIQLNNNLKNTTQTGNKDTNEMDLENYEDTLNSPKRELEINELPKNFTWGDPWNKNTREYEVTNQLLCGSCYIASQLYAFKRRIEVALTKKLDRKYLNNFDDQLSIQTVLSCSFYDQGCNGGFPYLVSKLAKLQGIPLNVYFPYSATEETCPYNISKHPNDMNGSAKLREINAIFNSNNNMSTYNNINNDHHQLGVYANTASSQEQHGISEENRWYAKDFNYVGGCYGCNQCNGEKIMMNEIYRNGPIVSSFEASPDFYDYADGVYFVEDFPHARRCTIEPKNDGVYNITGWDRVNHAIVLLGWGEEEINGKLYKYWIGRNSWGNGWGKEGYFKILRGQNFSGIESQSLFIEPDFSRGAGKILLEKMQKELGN
row,SMILES,% Inhibition @ 10 uM
1,CCOc1ccc(C2c3c(-c4ccccc4O)n[nH]c3C(=O)N2CCCOC(C)C)cc1 (stereo not shown),0.155%
2,CC1CCCCN1C1CCN(Cc2ccccc2)CC1 (stereo not shown),-0.0908%
3,COc1ccc(OC)c(CNC(=O)CCc2nc(-c3cccs3)no2)c1,-7.21%
4,CCOC(=O)C1=C(C)N=c2s/c(=C\c3cccs3)c(=O)n2C1c1ccc(C)cc1 (stereo not shown),1.27%
5,Cc1cc(C(=O)Nc2cccc(C(F)(F)F)c2)ccc1[N+](=O)[O-],-2.42%
6,C=CCN(CC=C)C(=O)C1c2ccccc2Oc2ccccc21,5.25%
7,Oc1nc2ccc3nsnc3c2nc1O,-2.18%
8,CCCCOc1ccc(/C=C(/C#N)c2nc(-c3ccccc3)cs2)cc1,-0.771%
9,Cc1nc2cc(-c3cccc(F)c3)nn2c(C)c1CCC(=O)NCc1cccnc1,-0.465%
10,COc1cc(C2C(C#N)=C(N)Oc3c2c(=O)oc2ccccc32)ccc1O (stereo not shown),0.147%
11,CC1CC(C)N(C(=O)c2cc(-c3ccc(F)cc3)no2)C(C)C1 (stereo not shown),-0.901%
12,CCOCCCNC(=O)C(NC(=O)Cc1cccs1)c1ccccc1 (stereo not shown),-2.9%
13,CC(=O)Nc1ccc(Nc2nc3ccccc3nc2NS(=O)(=O)c2ccc(C)cc2)cc1,-7.35%
14,CCOC(=O)c1[nH]c(COC)c(C(C)=O)c1C,2.7%
15,COc1ccccc1Cn1ccn(Cc2cccc(F)c2)c(=O)c1=O,3.71%
16,Cc1ccc(-c2csc3ncnc(N4CCCC4)c23)cc1,-4.39%
17,O=C(Nc1ccccc1)c1cc2ccccc2oc1=O,0.132%
18,O=C(NC12CC3CC(CC(C3)C1)C2)N1CCC(CN2CCCCC2)CC1,6.78%
19,CCOC(=O)c1cnc2c(-c3ccccc3OC)c(C)nn2c1C,-2.5%
20,COc1cccc(/C=C2/NC(=O)N(c3ccccc3)C2=O)c1OCC(=O)Nc1ccc(F)cc1,3.48%
21,COc1ccccc1CN1CCN(Cc2ccc(C)cc2)CC1,-2.74%
22,CCO/C(O)=C1\C(C)=NC(=S)NC1c1cccc2ccccc12 (stereo not shown),-1.66%
23,O=C(Nc1ccc(Cl)cc1)c1cc(Cl)ccc1NS(=O)(=O)c1ccc(Cl)c([N+](=O)[O-])c1,7.87%
24,O=C(CN1CCCCC1)N1CCN(C(=O)c2ccccc2)C1,-0.48%
25,Cc1ccc(-c2nnc(N3CCOCC3)c3ccccc23)cc1S(=O)(=O)N1CCCCC1,-3.41%

row,SMILES,% Inhibition @ 10 uM
1,CCO/C(O)=C1/C(C)=NC(=S)NC1c1ccc(C)cc1 (stereo not shown),-1.99%
2,COc1ccc(-c2nc(Nc3c(C)n[nH]c3C)sc2C)cc1,0.627%
3,Cc1cc(C)cc(NS(=O)(=O)c2ccc(Cl)cc2)c1,3.85%
4,N#Cc1c(Cl)nc(N2CCOCC2)c(Cl)c1Cl,0.561%
5,COc1ccc2nc(N/C=C3/C(=O)NC(=O)N(c4cccc(Cl)c4)C3=O)sc2c1,0.673%
6,Cc1cc(C)c(C)c(/C=C(/C#N)C(N)=S)c1C,-4.35%
7,CCc1ccc(/N=C(\C)C2=C(O)c3ccccc3C2=O)cc1,-0.759%
8,O=C(c1ccncc1)N1CCN(Cc2ccccc2C(F)(F)F)CC1,3.95%
9,Cc1cccc2c1-c1sc(C(=O)NCC3CCCO3)cc1CO2 (stereo not shown),3.45%
10,O=C(c1ccc(Cl)cc1Cl)N1CCN(c2ccccc2)CC1,-2.02%
11,CCC(=O)Nc1ccc2nc(SC(CC)C(=O)Nc3ccc(C(C)=O)cc3)sc2c1 (stereo not shown),1.03%
12,COC(=O)c1cc(S(=O)(=O)NCC2CCN(CCc3ccc(OC)cc3)CC2)cn1C,-0.127%
13,COc1ccc2nc(C(=O)O)sc2c1,-7.15% and 1.63%
14,O=C1c2ccc3c4c(ccc(c24)C(=O)N1Cc1ccccc1)C(=O)N(Cc1ccccc1)C3=O,8.97%
15,CCOC(=O)c1c(C)[nH]c(C)c1S(=O)(=O)N1CCCC(C(=O)NC(C)C)C1 (stereo not shown),-1.59%
16,CC(=O)c1cnc2cc(-c3cccc(Br)c3)nn2c1C,0.35%
17,CC1=C(C(=O)Nc2cccnc2)C(c2ccc(Br)cc2)n2nc(CCCO)nc2N1 (stereo not shown),10%
18,O=c1c(-c2ccc(Cl)cc2)c(C(F)(F)F)oc2cc(O)ccc12,-7.46%
19,CCc1ccc(Oc2nc3ccccn3c(=O)c2/C=C(\C#N)C(=O)N2CCCCC2)cc1,-4%
20,Cn1c(=O)n(CCc2ccccc2)c(=O)c2c1nc1n2CCN1Cc1ccco1,-2.28%
21,O=C(Nc1nonc1-c1nc2ccccc2[nH]1)c1ccncc1,5.39%
22,C(#Cc1cccs1)c1cnc2ccccc2c1,2.05%
23,Cc1ccc(CNC(=O)C2CCC(CNS(=O)(=O)c3ccc(Br)s3)CC2)cc1 (stereo not shown),-0.0508%
24,O=C(Nc1ccccc1F)c1ccc(Br)c(S(=O)(=O)N2CCOCC2)c1,5.84%
25,CC(C)(C)Nc1nc(NC(C)(C)C)nc(N2CCCCC2)n1,-3.58%

row,SMILES,% Inhibition @ 10 uM
1,COC(=O)c1ccc2c(c1)C(=O)N(c1cccc(NC(C)=O)c1)C2=O,1.64%
2,Cn1cc(/C=C(\C#N)[N+](=O)[O-])c2ccccc21,-2.51%
3,O=C(Nc1ccccc1-c1ccccc1NC(=O)C1C2CCCCC21)C1C2CCCCC21 (stereo not shown),4.22%
4,C=CCOc1ccc(Br)cc1CNC(C)(C)CO,-5.15%
5,CC1CCN(Cc2nc3c(c(=O)n(C)c(=O)n3C)n2Cc2ccc(F)cc2)CC1,-0.499%
6,O[C@@H](CNC[C@H](O)c1ccccc1)c1ccccc1,0.108%
7,COCCCNC(=O)C1CCCN(c2ncnc3c2nc2n3CCCCC2)C1 (stereo not shown),2.36%
8,O=C(CCc1nnc2ccc(N3CCCCC3)nn12)NCc1ccc(F)cc1,1.66%
9,COc1ccccc1CNc1ccc(Br)cn1,-14.8%
10,CCN(CC(O)COc1ccc2ccccc2c1)S(=O)(=O)O (stereo not shown),-3.48%
11,O=C1c2ccccc2-c2nnc(-c3cccnc3)cc21,-6.11%
12,COc1cc(-c2onc3ccc(Cl)cc23)cc(OC)c1OC,-4.03%
13,CCCCN(CCCC)Cc1nc(O)c2c(n1)-c1ccccc1CC21CCCCC1,2.6%
14,O=C(c1ccc([N+](=O)[O-])o1)N1CCN(c2cccc(Cl)c2)CC1,0.0792%
15,CC(C)(C)c1ccc(-c2nnc(SCC(=O)N3CCOCC3)o2)cc1,-5.29%
16,CCCN1CC2=C(N=C(S)NC2c2ccc(N(C)C)cc2)/C(=C/c2ccc(N(C)C)cc2)C1 (stereo not shown),1.29%
17,Fc1ccc(-c2noc3ncnc(NCCCN4CCOCC4)c23)cc1,-6.14%
18,Cc1cc(C)n(-c2nc3ccccc3nc2N2CCN(S(=O)(=O)c3ccc(F)c(C)c3)CC2)n1,2.94%
19,Cc1cc(Cl)ccc1OC(C)c1nc(-c2ccc(OCC(N)=O)cc2)no1 (stereo not shown),-6.23%
20,COC(=O)c1[nH]c2sc3c(c2c1N)CCCC3,3.3%
21,COc1cc(C(=O)Nc2nc3nc(C)c(C)c(O)n3n2)cc(OC)c1OC,-1.31%
22,Cc1noc2ncnc(N3CCCC(C(=O)NC4CCCCCC4)C3)c12 (stereo not shown),1.84%
23,CN1CCCN(CC(c2ccccc2)c2ccccc2)CC1,-0.603%
24,CCN1CCN(Cc2nc3c(c(=O)n(C)c(=O)n3C)n2Cc2ccc(Cl)cc2Cl)CC1,-6.06%
25,O=C(NCCCn1ccnc1)c1ccccc1Br,-3.63%

row,SMILES,% Inhibition @ 10 uM
1,N#Cc1cc2c(nc1SCC(=O)Nc1nccs1)CCCCC2,-5.07%
2,Cn1c(O)cc(=O)nc1SCc1ccccc1,0.135%
3,Cc1cc(NC(=O)CN2CCN(Cc3ccccc3)CC2)no1,4.57%
4,CC(=O)c1cc2c(cc1NC(=O)C(C)C)OCO2,-0.872%
5,CCC(C(=O)Nc1nc2nc(C)c(Cl)c(O)n2n1)c1ccccc1 (stereo not shown),-4.91%
6,O=C(c1cc(-c2ccncc2)nc2ccccc12)N1CCCCC1,-7.35%
7,CC(C)CCn1c(SCc2ccc(Cl)cc2)nc2nccnc2c1=O,3.92%
8,Cc1cc2cc(CNC(=O)c3ccccc3C(F)(F)F)ccc2[nH]1,-5.58%
9,O=C(Nc1ccc(N2CCCCC2)cc1)c1cccnc1,-2.51%
10,Nc1nc(-c2ccc(F)cc2)cs1,-8.19%
11,O=c1c(=O)n(Cc2cccc(C(F)(F)F)c2)ccn1Cc1ccc(Cl)cc1,1.51%
12,COc1ccc(C2CC3=NC(C)=C(C(=O)Nc4ccccn4)C(c4cccc(OC)c4)C3=C(O)C2)cc1 (stereo not shown),0.343%
13,CCNC(=O)/C(=C\c1ccco1)NC(=O)c1ccccc1Cl,4%
14,CCOC(=O)Cn1c(=S)sc2ccccc21,-1.5%
15,O=C(N/C(=C\c1ccco1)C(=O)N1CCOCC1)c1ccc(Br)o1,-2.78%
16,Clc1cccc2c(N3CCN(c4ccccn4)CC3)cnnc12,-6.14%
17,Cc1ccccc1CS(=O)(=O)Cc1ccc(C(=O)NCCCN2CCCC2=O)o1,-7.35%
18,N#C/C(=C\c1cccs1)c1nc(-c2ccc(Cl)cc2)cs1,3.06%
19,Cc1ccc(S(=O)(=O)N(CC(=O)NC2CCCC2)c2cccc(C(F)(F)F)c2)cc1,-3.49%
20,O=C(c1ccco1)N1CCN(Cc2ccccc2Br)CC1,7.1%
21,CC(C)C(NC(=O)C1CCCCC1)C(=O)NC1CCN(Cc2ccccc2)CC1 (stereo not shown),-0.228%
22,Cc1cc2nc(-c3ccc(C)s3)cc(C(F)(F)F)n2n1,-2.85%
23,O=C(c1ccc(S(=O)(=O)N2CCCCC2)cc1)N1CCN(c2ccccc2)CC1,-3.83%
24,COC(=O)C1=CN(Cc2ccc(OC)cc2)C=C(C(=O)OC)C1c1cc(OC)ccc1OC,1.86%
25,Cc1ccc2cccc(O)c2[n+]1[O-],1.12%
